Laboratory results reported in US20220251191A1 (published 2022).

Target: T1, IL-15Rβ with 20 nM receptor γ (UniProt P14784 27-239; P31785 23-262)
T1 chain 1: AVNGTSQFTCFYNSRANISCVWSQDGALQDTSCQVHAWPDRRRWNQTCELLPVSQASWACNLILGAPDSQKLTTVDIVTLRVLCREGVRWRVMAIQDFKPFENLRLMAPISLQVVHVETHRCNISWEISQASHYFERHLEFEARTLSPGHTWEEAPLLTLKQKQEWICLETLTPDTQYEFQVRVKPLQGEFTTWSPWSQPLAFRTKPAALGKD
T1 chain 2: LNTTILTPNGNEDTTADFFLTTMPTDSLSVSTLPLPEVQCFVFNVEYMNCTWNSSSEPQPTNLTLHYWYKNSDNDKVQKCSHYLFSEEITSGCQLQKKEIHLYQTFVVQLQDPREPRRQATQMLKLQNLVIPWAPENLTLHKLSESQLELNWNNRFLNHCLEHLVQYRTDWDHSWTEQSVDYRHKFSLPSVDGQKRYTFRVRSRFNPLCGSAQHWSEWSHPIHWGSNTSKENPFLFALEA
Test: TR-FRET; with gamma

B1: IL-15 WT (in-house His6) (ligand)
chain: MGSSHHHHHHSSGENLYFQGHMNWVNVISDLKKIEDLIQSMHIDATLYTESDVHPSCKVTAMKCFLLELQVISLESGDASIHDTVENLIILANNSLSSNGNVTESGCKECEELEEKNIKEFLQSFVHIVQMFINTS
Question: How did the Kd turn out when B1 was run?
Answer: 3.61 nM
